Consider six molecules from PubChem BioAssay AID1918954 (Molecular Pharmacology Branch, DTP, NCI, 2023).

The source holds more than one record for some entries. This list holds those alone. There may be further records. Results that share an entry are repeats (runs, samples, wells, individuals or studies). Counts like (3×) give the number of equal values in this list. Dates in brackets are months of testing.

For the test, the system named is MDA-MB-468 complex spheroids with HUVEC/MSC, viability. Put plainly: Anticancer human tumor MDA-MB-468 cell line growth inhibition.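 Note: spheroids exposed to agents for seven days; 100% = DMSO vehicle control viability.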 The settings on record: stronger effect = lower value. The text has this:
Multicellular complex tumor spheroid response to LSD1 Inhibitor Iadademstat in combination with a variety of drugs and investigational agents in selected tumor cell lines
The current study was undertaken to assess response to LSD1 inhibitors in combination with standard-of-care drugs and investigational agents in solid tumor complex spheroid models as well as in the K-562 leukemia. Complex spheroids include a stromal component modeled by human endothelial cells (HUVEC) and fibroblasts modeled by human mesenchymal stem cells (MSCs). The concentration ranges selected for each drug and investigational agent were based upon clinically achievable concentrations if the clinical Cmax of the agent was known.
Compounds. The drugs and investigational agents used in this study are listed on Table 1. All of the agents used, including staurosporine (NSC755774) and gemcitabine (NSC613327), were obtained from the Developmental Therapeutics Program, NCI. FDA-approved anticancer drugs are available from the NCI at http://dtp.nci.nih.gov/branches/dscb/oncology_drugset_explanation.html. Drugs and investigational agents were >95% pure by proton nuclear magnetic resonance (NMR) and liquid chromatography/mass spectrometry (LC/MS). Stock solutions were prepared at 400x in DMSO, stored at -70 degrees C, and diluted in fresh medium prior to their use. The final concentration of DMSO in cell culture wells never exceeded 0.25% (v/v). The FDA-approved anticancer drug set is available from the Developmental Therapeutics Program at https://dtp.cancer.gov/organization/dscb/obtaining/available_plates.htm. All drugs and investigational agents were tested over a range starting from a high concentration at or near the clinical Cmax and decreasing in half-log increments. If the clinical Cmax for an agent had not been determined, the highest concentration tested was 10 microM.
Cell Lines. The patient-derived cancer cell (PDC) lines: 292921-168-R-J2-PDC, K24384-001-R-PDC, and 521955-158-R2-J5-PDC pancreatic carcinomas, 556581-035-R-J1 ovarian carcinoma, 324938-238-R-J1-PDC, 855422-203-R-J1-PDC and 883617-216-R-J1-PDC urothelial bladder carcinomas, 743489-274-T-PDC renal cell carcinoma, 138582-R-J1 Merkel cell tumor, K60290-347-R-J1 and K57222-313-R-J1-PDC glioblastomas, 653999-131-R-J2-PDC, LG0703-F948-PDC, and 349418-098-R-PDC non-small cell lung carcinomas, 885512-296-R-J2-PDC, 171881-019-R-J1-PDC breast carcinomas and 186277-243-T-J2-PDC and 233499-124-R-J2-PDC colon carcinomas were obtained from the NCI Patient-Derived Models Repository (PDMR, https://pdmr.cancer.gov). The established cell lines NCI/ADR-RES (RRID:CVCL_14520 and OVCAR-5 (RRID:CVCL_1628) ovarian carcinomas, 786-O (RRID:CVCL_1051) and A498 (RRID:CVCL_A498) renal cell carcinoma, NCI-H211 (ATCC, cat. CRL-5824; RRID:CVCL_1529), NCI-H196 (ATCC, cat. CRL-5823, RRID:CVCL_1509), SW 1271 (ATCC, cat. CRL-2177, RRID:CVCL_1716) and NCI-H1876 (ATCC, cat. CRL-5902, RRID:CVCL_1503) small cell lung carcinomas, MDA-MB-231 (RRID:CVCL_0062) and MDA-MB-468 (RRID:CVCL_0419)breast carcinomas (10-12). Pooled donor human umbilical vein endothelial cells (HUVEC, Lonza, cat. CC-2519) and human mesenchymal stem cells (hMSC, Lonza, cat. PT-2501) were purchased from Lonza (Walkersville, MD).
Cell Culture. All cells were maintained in an incubator at 37 degrees C and 5% CO2 with 95% humidity. The PDC lines were cultured according to standard operating procedures established by the NCI PDMR (https://pdmr.cancer.gov). Briefly all PDCs were thawed and cultured in Matrigel-coated flasks prepared with a working solution of 1X Ham's F-12 nutrient mix, without supplementation (Invitrogen, Waltham, MA, cat. 11765054), 100 U/mL penicillin-streptomycin (Invitrogen, cat. 15140122), and 2.5% Matrigel (Corning Inc., Corning, NY, cat. 354248) for the first three passages. […]

Regarding `NC1CCC(NC2CC2c2ccccc2)CC1` (stereo not drawn), the viability, T/C is 86.4, 101 (2×), 88.1, 85.1, 100, 104 (2×), 113, 92.7, 94.7, 97, 110, 103 (2×), 94.3, 112, 98.8, 114, 92.5, 99.7, 82, 96.2, 107, 93.2% (compound alone 0.1 µM); 89.1, 81.8, 82.7, 82.5, 94.6, 95, 113, 102, 83.4, 92.3, 87, 79.4, 85.4, 82.8, 82, 85.8, 88.8, 94 (2×), 86, 76.4, 69.8, 67.7, 80.5, 91% (compound alone 1 µM); 73.2, 85.7, 79.1, 102 (2×), 87.1, 74, 95.5, 92.6 (2×), 96, 83.7, 95.4, 89.1, 82.1, 89.3, 71, 86.5, 75.4, 81.6, 78.2, 87.2, 85.8, 80.7% (compound alone 3.16 µM); 54.5, 66.6, 70.3, 82.9, 71.7, 74.8, 61.5 (2×), 68.7, 62.8, 85.2, 95, 84.8, 67.7, 76.4, 73, 65.9, 62, 57.5, 57.7, 70.2, 46.4, 60.7% (compound alone 10 µM).
On to `NC1CC1c1ccc(-c2cccc(O)c2)cc1` (stereo not drawn), for which the viability, T/C reads like this: (compound alone 0.316 µM) 94.6, 90.9, 116, 89.3, 104, 93.5, 86, 121, 90.5, 93.1, 96.5, 101, 94, 102, 97.9, 89.7, 80.4, 90.2, 87.8, 99.9, 105, 93, 92.7, 97.3, 88.1%; (compound alone 1 µM) 114 (2×), 92.2, 109, 104, 105, 90.4, 91.1, 113 (2×), 83.5, 92.7, 117, 107, 115, 96, 93.5, 92.9, 96.7, 87.5, 80.7, 97.8, 96.2, 102, 97.5%; (compound alone 3.16 µM) 95.6, 95.9, 96.3, 106 (2×), 109, 93.8, 102 (2×), 80.9, 95.2, 112, 110, 94, 97.9, 90.6 (2×), 92.4, 94.4, 80.5, 91.7, 99.7, 95.8, 94.5, 85.8%; (compound alone 10 µM) 79.5, 71.1, 74.2, 72.1, 68.2, 76.4, 80.5, 72.8, 70.9, 63.9, 73.2, 69.2, 74.7, 83.1, 58, 75, 65.1, 75.3, 70.1, 76, 81.9, 65.4, 77.2, 82.8, 66.2%.
As to `CC(C)CC(NC(=O)C(Cc1ccccc1)NC(=O)c1cnccn1)B(O)O` (stereo not drawn), the viability, T/C (compound alone 0.000316 µM) is 91.1% [2022-01] and 7.05% [2022-02]; the viability, T/C (compound alone 0.001 µM) was 29.7% [2022-01] and 0.17% [2022-02].
For the molecule `O=C(C=Cc1cccc(S(=O)(=O)Nc2ccccc2)c1)NO`, the viability, T/C (compound alone 3 µM) was 15.4% [2022-01] and 97.2% [2022-02].
Take `CC1(C)CCC(CN2CCN(c3ccc(C(=O)NS(=O)(=O)c4ccc(NCC5CCOCC5)c([N+](=O)[O-])c4)c(Oc4cnc5[nH]ccc5c4)c3)CC2)=C(c2ccc(Cl)cc2)C1`: the viability, T/C (compound alone 10 µM) was 38.5% [2022-01] and 2.56% [2022-02].
For `Nc1ccn(C2OC(CO)C(O)C2(F)F)c(=O)n1` (stereo not drawn), the viability, T/C (compound alone 0.000949 µM) is 7.49% [2022-01] and 40.7% [2022-02].
